These results are taken from PMC10761827.

Chains of the proteins cited; added tags and fusions are not shown. Lines headed by an entry give the natural chain unless they say otherwise; changes in a name come on top. A line that says so, or that is headed by a name, gives the form on record, which may keep a tag or linker. Residues count along the entry.
UniProt Q9NZQ7, residues 19-290: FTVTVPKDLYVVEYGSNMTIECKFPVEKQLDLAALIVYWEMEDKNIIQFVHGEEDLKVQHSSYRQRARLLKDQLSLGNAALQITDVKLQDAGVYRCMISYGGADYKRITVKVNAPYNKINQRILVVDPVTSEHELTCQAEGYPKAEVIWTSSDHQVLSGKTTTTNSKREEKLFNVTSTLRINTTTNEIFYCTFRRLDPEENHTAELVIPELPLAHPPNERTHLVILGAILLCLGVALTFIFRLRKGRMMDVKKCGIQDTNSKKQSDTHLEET
UniProt Q9EP73: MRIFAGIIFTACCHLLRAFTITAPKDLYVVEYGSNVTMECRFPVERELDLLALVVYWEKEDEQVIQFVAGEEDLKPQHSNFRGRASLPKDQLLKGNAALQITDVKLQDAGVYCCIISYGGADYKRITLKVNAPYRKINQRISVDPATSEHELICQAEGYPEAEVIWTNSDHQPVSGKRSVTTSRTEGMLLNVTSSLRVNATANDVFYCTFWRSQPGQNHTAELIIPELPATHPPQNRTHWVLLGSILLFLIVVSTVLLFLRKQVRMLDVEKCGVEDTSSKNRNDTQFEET
Myc-PD-L1 3KR (K262R/K271R/K280R) (Q9EP73, form named): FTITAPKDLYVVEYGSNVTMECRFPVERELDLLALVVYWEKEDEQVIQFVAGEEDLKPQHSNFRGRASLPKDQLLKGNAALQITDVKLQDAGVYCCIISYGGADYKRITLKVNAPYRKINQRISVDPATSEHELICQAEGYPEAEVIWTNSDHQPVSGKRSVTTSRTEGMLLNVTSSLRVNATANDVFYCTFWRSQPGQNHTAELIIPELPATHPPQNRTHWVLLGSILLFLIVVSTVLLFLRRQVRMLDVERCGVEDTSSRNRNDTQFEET

Substitutions are numbered along the chain they refer to. These are yes or no findings as the source states them, for the method shown. Binding seen in cells or lysates may run through a third protein. Some binding calls cover weakened binding; strength is not graded here. For some of these results: Sequences can lack the tags named with a protein.

Assay [1] deals with T1, endogenous OTUB2 (NCI-H358 cells) (human (endogenous in NCI-H358)) (UniProt Q96DC9).
T1 sequence: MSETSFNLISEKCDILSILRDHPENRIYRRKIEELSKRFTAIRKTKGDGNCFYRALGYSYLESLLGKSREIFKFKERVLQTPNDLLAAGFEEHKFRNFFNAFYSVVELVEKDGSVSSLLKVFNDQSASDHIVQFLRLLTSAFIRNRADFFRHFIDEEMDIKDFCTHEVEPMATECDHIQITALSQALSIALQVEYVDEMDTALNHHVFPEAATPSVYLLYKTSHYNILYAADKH
Put plainly: proximity ligation; Duolink in situ PLA on fixed NCI-H358 cells with anti-OTUB2 and anti-PD-L1 antibodies.

For assay [2], the target named is T1, endogenous OTUB2 (NCI-H358 cells) (human (endogenous in NCI-H358)). The assay is described as follows: co-IP; endogenous proteins, NCI-H358 cell lysate, immunoprecipitation with an anti-OTUB2 antibody, Dynabeads Protein A; immunoblot. (Immunoblotting shows a protein as a band on a membrane.)
Assay [3] has as its target T2, OTUB2-Flag (wild-type) (not stated (human or mouse cDNA cloned)) (UniProt Q96DC9).
T2 sequence: T1 sequence
The assay is described as follows: co-IP; 293T (HEK293T) cells cotransfected with tagged OTUB2 and PD-L1 constructs; Pierce IP lysis buffer; anti-Flag M2 affinity gel or anti-HA magnetic beads, or antibody with Dynabeads Protein A, 4 °C; immunoblot.

The target of assay [4] is T3, OTUB2-Flag C51S mutant (not stated (human or mouse cDNA cloned)) (UniProt Q96DC9).
T3 sequence: T1 sequence with C51S
Described as above.

In assay [5] the target is T4, Myc-OTUB2 (not stated (human or mouse cDNA cloned)) (UniProt Q96DC9).
T4 sequence: T1 sequence
The assay is described as above.

Assay [6] has as its target T5, OTUB2 44-234 (amino acids 44-234; OTU domain) (not stated (human or mouse cDNA cloned)) (UniProt Q96DC9).
T5 sequence: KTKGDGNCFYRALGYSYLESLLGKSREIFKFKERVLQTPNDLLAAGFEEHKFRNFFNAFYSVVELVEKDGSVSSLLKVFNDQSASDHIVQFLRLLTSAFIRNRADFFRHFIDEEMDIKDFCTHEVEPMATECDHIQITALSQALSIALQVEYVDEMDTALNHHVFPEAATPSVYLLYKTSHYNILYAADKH
Described as above.

Assay [7] addresses T6, OTUB2 FL (lenti-HA vector) (not stated (human or mouse cDNA cloned)) (UniProt Q96DC9).
T6 sequence: T1 sequence
The description is as above.

In the case of “endogenous PD-L1 (NCI-H358 cells) (from UniProt Q9NZQ7 19-290) (ligand)”, the binding entry in assay [1] and in assay [2] was “binds” in each case.
As to “PD-L1 (untagged construct) (from UniProt Q9EP73 19-290) (ligand)”, the binding entry in assay [3] is recorded as “binds”; in assay [4] it was “no binding”.
As for “PD-L1ΔICD (amino acids 1-260), as used with Myc-OTUB2 in Fig. 2f (from UniProt Q9EP73 19-260) (domain or fragment)”, in assay [5], the binding entry was “no binding”.
As to “PD-L1-Flag (PD-L1 FL) (from UniProt Q9EP73 19-290) (ligand)”, the binding entry in assay [5], in assay [6] and in assay [7] was “binds” each time.
Take “Myc-PD-L1 ΔICD (amino acids 1-260) (from UniProt Q9EP73 19-260) (domain or fragment)”: the binding entry in assay [3] is “no binding”.
Still for that read-out and setting: the entry for “Myc-PD-L1 3KR (K262R/K271R/K280R) (from UniProt Q9EP73 19-290) (ligand)” is “binds”.
